From publication PMC6919601, “Identification of Plasmodium dipeptidyl aminopeptidase allosteric inhibitors by high throughput screening” (PLoS ONE, 2019)
About 230 (0.21%) of roughly 110,000 compounds showed an effect of 50% or more. The list shows a part of the results.

target: DPAP1 (Plasmodium falciparum, UniProt Q8IIJ9); assay: primary screen, percent inhibition; read by cleavage of a fluorogenic dipeptide substrate; higher = more effect of the substance; design: species or system P. falciparum D10 trophozoite lysates; single well
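Further: 30 min substrate incubation versus DMSO and 10 µM JCP410 controls.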

DPAP1, sequence (Q8IIJ9 whole entry, looked up): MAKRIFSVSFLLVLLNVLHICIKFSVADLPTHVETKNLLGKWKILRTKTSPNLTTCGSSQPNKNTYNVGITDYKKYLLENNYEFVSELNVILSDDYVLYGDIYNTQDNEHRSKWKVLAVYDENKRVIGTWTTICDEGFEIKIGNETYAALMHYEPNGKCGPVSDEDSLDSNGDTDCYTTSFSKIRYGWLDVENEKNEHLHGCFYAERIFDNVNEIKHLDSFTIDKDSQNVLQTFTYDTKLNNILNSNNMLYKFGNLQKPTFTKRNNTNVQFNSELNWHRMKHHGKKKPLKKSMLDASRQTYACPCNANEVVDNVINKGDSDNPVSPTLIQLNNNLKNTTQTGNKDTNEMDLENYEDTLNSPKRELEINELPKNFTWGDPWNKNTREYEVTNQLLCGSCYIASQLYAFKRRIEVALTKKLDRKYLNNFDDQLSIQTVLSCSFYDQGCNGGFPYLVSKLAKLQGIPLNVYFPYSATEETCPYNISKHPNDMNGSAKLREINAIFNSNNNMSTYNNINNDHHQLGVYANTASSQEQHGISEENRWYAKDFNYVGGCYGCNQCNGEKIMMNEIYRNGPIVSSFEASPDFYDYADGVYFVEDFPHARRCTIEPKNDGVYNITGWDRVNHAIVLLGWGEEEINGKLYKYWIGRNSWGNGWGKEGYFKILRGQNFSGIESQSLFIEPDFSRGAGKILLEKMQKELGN

SMILES | % Inhibition @ 10 uM [%]
Cc1ccc(C)c(NC(=O)c2ccc(Cn3nc(C)c(Cl)c3C)o2)c1 | 0.674
COc1ccccc1N1CCN(C(=O)c2ccc(N(C)C)cc2)CC1 | -2.74
Cc1cccc(CCNC(=O)[C@H](Cc2ccccc2)N2Cc3ccccc3C2=O)c1 | 2.93
Cc1nn(CC(=O)N2CCC(C(N)=O)CC2)c(=O)c2nn(-c3ccccc3)c(C)c12 | -3.05
CC1CCN(S(=O)(=O)c2ccc3c(ccn3CC(=O)N3CCCCCC3)c2)CC1 | -5.15
O=C1CCCC2=C1C(c1cccc([N+](=O)[O-])c1)Nc1ccc3ccccc3c12 (stereo not drawn) | 5.64
Cc1cc(C)c2c(N)c(C(=O)NCc3ccccc3)sc2n1 | 1.72
CCOc1ccc(NC2=C(Cl)C(=O)N(c3ccc(C)cc3)C2=O)cc1 | -1.84
O=C(c1ccc2c(c1)C(=O)N(Cc1ccco1)C2=O)N1CCOCC1 | 0.66
CC1=C(C(=O)N2CCCCC2)C(c2cccc(O)c2)C2=C(O)CCCC2=N1 (stereo not drawn) | 3.45
O=C(Nc1ccc(NC(=O)c2ccco2)cc1)c1ccccc1 | 1.34
CCCCCCSc1nc(O)cc(O)n1 | -1.42
COCCNCC(=O)NC12CC3CC(CC(C3)C1)C2 | 1.12
O=C(Nc1nccs1)c1ccc(-c2cccc(C(F)(F)F)c2)o1 | -0.132
NS(=O)(=O)c1ccc(NC(=O)c2ccc(Cl)cc2)cc1 | 3.01
CCNC(=S)N(CCc1c(C)[nH]c2ccc(OC)cc12)Cc1ccncc1 | 5.4
COc1cc(C2Nc3ccccc3N=C3CC(c4ccc5c(c4)OCO5)CC(O)=C32)cc(OC)c1O (stereo not drawn) | -9.12
Nc1c(C(=O)C2CC2)sc2nc(-c3ccc(F)cc3)cc(-c3ccccc3)c12 | -1.66
OC(COC12CC3CC(CC(C3)C1)C2)CN1CCOCC1 (stereo not drawn) | -8.75
COc1ccc(-c2noc(N3CCCC(C(=O)NC4CCCc5ccccc54)C3)n2)cc1 (stereo not drawn) | 3.44
O=C(CCn1nc(-c2ccc(Cl)cc2)ccc1=O)NC1CCCC1 | 4.81
CC(=O)N[C@@H](CC1CCCCC1)C(=O)N[C@@H](CCc1ccccc1)C(=O)COCc1ccccc1 | -3.49
CCN(Cc1ccccc1)C(=O)c1oc2ccc(S(=O)(=O)N3CCOCC3)cc2c1C | -0.519
CCc1ccc(-c2cn3c4ccccc4nc3n2CCO)cc1 | 3.15
Cn1ccnc1SCC(=O)NCCc1ccccc1 | 0.503

SMILES | % Inhibition @ 10 uM [%]
COc1cccc(C2Nc3ccccc3N=C3CC(C)(C)CC(O)=C32)c1OC (stereo not drawn) | -0.759
O=C(COc1ccccc1Cl)Nc1ccc(S(=O)(=O)N2CCCC2)cc1 | -0.251
O=C(CN1CCN(c2ccccc2)CC1)Nc1c2c(nc3c1CCC3)CCCC2 | -5.13
CCOC(=O)c1c(C)oc2ncnc(NC3CCN(C(=O)OCC)CC3)c12 | 3.54
CN(C)c1ccc(-c2ncnn2-c2ccccc2)cc1 | 3.18
CCOc1ccccc1-c1nc(-c2cccc(OC)c2)no1 | -0.671
CCn1cnc2sc(C)c(-c3ccc(Br)cc3)c2c1=O | -2.46
c1ccc2[nH]c(SCc3cn4ccsc4n3)nc2c1 | -1.72
C=CCN1CC(c2nc3ccccc3n2Cc2ccccc2F)CC1=O (stereo not drawn) | -1.71
Cc1cc2nc(O)c(O)nc2cc1S(=O)(=O)NCCC(C)C | 7.8
C=CCNC(=O)Cc1c(O)nc2ccccc2c1O | 0.219
CC(=O)c1cc(-c2ccc(F)cc2)n(CCC(=O)NC(C)c2ccccc2)c1C (stereo not drawn) | -3.64
CCc1ccc(CN(C(=O)c2cc(=O)c3cc(Cl)ccc3o2)C2CCS(=O)(=O)C2)cc1 (stereo not drawn) | 3.51
Cc1ccc(C2=NC3(CCN(C(=O)Cc4ccccc4)CC3)NC2=O)cc1 | -0.238
C=CCn1c(C(C)Oc2cccc(C)c2)nc2ccccc21 (stereo not drawn) | 3.61
Cc1cccc(N2CCN(C(=O)c3ccc([N+](=O)[O-])cc3Cl)CC2)c1C | -5.62
CC(O)CN(Cc1ccccc1F)CC(C)O (stereo not drawn) | -8.99
CC1(C)Cc2c(ccc3ccccc23)CN1C(=O)c1ccccc1 | 0.27
O=C(Cn1nc(C(F)(F)F)cc1C1CC1)Nc1ccc(C(=O)N2CCOCC2)cc1 | 1.59
Fc1ccc(-c2noc3ncnc(N4CCC(Cc5ccccc5)CC4)c23)cc1 | -3.83
CCOC(=O)N1CCC(c2nc(C)sc2C(=O)NCc2ccc(Cl)cc2)CC1 | -4.74
O=C(Cn1ncc2c3ccccc3nc-2c1O)NCC1CCN(Cc2ccccc2F)CC1 | 1.66
CC(=O)c1ccc(N2CCN(Cc3ccsc3)CC2)cc1 | 1.38
CCCCNC(=O)C1CCN(c2nc3ccccc3n3cccc23)CC1 | -7.65
OCCCN1CCN(CCOc2ccccc2-c2ccccc2)CC1 | -0.519

SMILES | % Inhibition @ 10 uM [%]
CCOC(=O)N1CCC(NC(=O)C2CCN(S(=O)(=O)c3c[nH]cn3)CC2)CC1 | 1.23
O=C(COc1ccccc1)Nc1nc2ccccc2s1 | 3.44
CCC(C)NC(=O)C1c2ccccc2C(=O)N(CCOC)C1c1cccs1 (stereo not drawn) | -0.326
COc1ccc2[nH]c3c(=O)n(CC(=O)NCCC4=CCCCC4)c(=S)[nH]c3c2c1 | 2.54
CCn1nc(C)c(NC(=O)Cc2ccc(Cl)cc2)c1C | -9.31
CCOC(=O)C1CCCN(CCCCCCC=C(C)C)C1 (stereo not drawn) | 4.9
COc1ccc(/C=C(\NC(=O)c2ccccc2)C(=O)OCC2CCCN3CCCCC23)cc1OC (stereo not drawn) | -1.55
CCCC[C@H](NC(=O)OCC(C)C)C(=O)c1nnc(-c2ccco2)o1 | 1.7
N#CCNC(=O)C(CC1=CCCC1)NC(=O)OCc1ccccc1 (stereo not drawn) | -3.49
O=C1c2ccccc2C(=O)N1Cc1ccccc1O | -3.23
Cc1sc2nc(SCC(=O)c3ccc(O)c(O)c3)nc(O)c2c1C | 8.95
CCn1c2ccc(F)cc2c2nnc(SCCN3CCCCC3)nc21 | 0.627
Cc1ccc(C(=O)c2oc3ccc(Cl)cc3c2N)cc1 | -7.4
CNC(=O)/C(=C\c1ccc2c(c1)OCO2)NC(=O)c1ccccc1OC | -0.941
O=C(Nc1c(C(=O)N2CCCCCC2)cnn1-c1ccccc1)c1ccccc1 | 1.78
O=C(CSc1ccc(Br)cc1)Nc1cc(F)ccc1F | 2.51
Cc1ccc(NC(=O)c2cc3c(=O)oc4ccccc4c3s2)nc1 | 2.73
CCOC(=O)Nc1cc(C(=O)OCC)c(C)nc1C | -7.09
CCN(CC)C(=O)C1CCCN(c2ncnc3c2cnn3-c2cccc(C)c2)C1 (stereo not drawn) | -1.44
CCOc1ccc(NC(=O)c2cccnc2)cc1 | -4.08
CCOC(=O)C1=C(C)OC(N)=C(C#N)C1c1ccc(Cl)cc1Cl (stereo not drawn) | 3.1
COc1cc(SC)ccc1C(=O)NC1CCCC1 | 0.121
CC(C)(CO)NC(=O)C(Cc1ccccc1)N1C(=O)c2ccccc2C1=O (stereo not drawn) | -3.5
Cc1c(C(=O)NCCCOC(C)C)sc2nc3n(c(=O)c12)CCCCC3 | 0.372
COc1cc(CN2CCN(c3cccc(C(F)(F)F)c3)CC2)c([N+](=O)[O-])cc1OC | -6.47

SMILES | % Inhibition @ 10 uM [%]
CCOC(=O)c1c(C)oc2c1c(/C=N/c1cccc(C)n1)c(O)c1ccccc12 | -7.02
CC1(C)Cn2c(nc(=O)c3c2NC(=O)C3(NC(=O)c2ccccc2)C(F)(F)F)S1 (stereo not drawn) | 8.81
COc1cc(OC)cc(C(=O)Nc2nc(-c3nnn(-c4ccc(C)c(C)c4)c3C)ns2)c1 | -1.92
Cc1ccc(OCC(=O)Nc2ccccc2NC(=O)COc2ccc(C)cc2)cc1 | -0.992
COc1cc(/C=C(\C#N)c2nc3ccccc3[nH]2)cc(Br)c1OC | -4.33
COc1cc(CN2CCN(Cc3cccc(Cl)c3)CC2)cc(OC)c1OC | 0.643
O=C(O)c1cc(Nc2ccccc2)c(C(=O)O)cc1Nc1ccccc1 | -0.129
CC(C)CN1C(=O)c2ccccc2C(C(=O)NCCCN(C)Cc2ccccc2)C1c1cccs1 (stereo not drawn) | 2.78
CCC(CC)C(=O)Nc1ccc(C(=O)c2ccccc2)cc1 | 0.843
CCc1ccc(-n2c(SC(CC)C(=O)N3CCOCC3)nc3nnc(C)c-3c2N)cc1 (stereo not drawn) | 2.8
Cc1ccccc1NC(=O)Cn1nc(C(F)(F)F)cc1C1CC1 | 1.57
CC(C)CC(C(=O)NCC#N)c1cccc(-c2cc(F)ccc2O[C@H]2CCNC2)c1 (stereo partly drawn) | -6.56
CCN1C(=O)S/C(=C\c2cc3c(cc2Br)OCO3)C1=O | 3.17
CCC1=C(c2ccc(C)cc2)S(=O)(=O)N=C1N1CCC(C(=O)NC2CCCCCC2)CC1 | -3.53
CCn1c2ccc(OC)cc2c2nc3ccccc3nc21 | -3.13
Brc1ccc(CSc2nc3ccccc3o2)cc1 | -7.8
COC(=O)c1ccccc1S(=O)(=O)NC(=O)Nc1nc(C)nc(OC)n1 | -0.999
O=C(Cn1ncc2ccc(Cl)cc21)NC1CCCc2ccccc21 (stereo not drawn) | 0.596
CCOC(=O)N1CCN(C(=O)CSc2nnc(Cc3cccn3C)n2-c2ccc(OC)cc2)CC1 | -5.76
COC(=O)C1=C(C)OC(n2cccc2)=C(C#N)C1c1cc(OC)c(O)c(OC)c1 (stereo not drawn) | 6.73
Cc1nnc(NC(=O)NCCc2ccccc2)s1 | -0.0678
COc1ccc(S(=O)(=O)NCCSc2ccccn2)cc1 | 2.32
O=C(/C=C/c1cccc([N+](=O)[O-])c1)N1CCCCCC1 | 1.35
O=C1OC(c2ccc(Br)o2)=N/C1=C/c1cc(Br)cs1 | -0.972
